T1: Human BMP-9 (human, UniProt Q9UK05 320-429)
T1 sequence (looked up): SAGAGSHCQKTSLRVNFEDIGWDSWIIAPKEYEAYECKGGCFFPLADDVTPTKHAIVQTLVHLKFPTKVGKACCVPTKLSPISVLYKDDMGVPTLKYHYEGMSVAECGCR

B1: Alk1 extracellular domain (Alk1-ED), wild type (domain or fragment)
chain: not shown
B2: Alk1 extracellular domain R53D (domain or fragment)
chain: not shown
B3: Alk1 extracellular domain R53A (domain or fragment)
chain: not shown
B4: Alk1 extracellular domain R26A (domain or fragment)
chain: not shown
B5: Alk1 extracellular domain E54A (domain or fragment)
chain: not shown
B6: Alk1 extracellular domain H52A (domain or fragment)
chain: not shown
B7: Alk1 extracellular domain N50A (domain or fragment)
chain: not shown
B8: Alk1 extracellular domain E54F (domain or fragment)
chain: not shown
B9: Alk1 extracellular domain R59A (domain or fragment)
chain: not shown

target: T1, Human BMP-9; experiment: SPR

| Kd | Binder |
| --- | --- |
| 0.029 µM | B1 |
| 0.43 ± 0.06 µM | B2 |
| 0.087 µM | B3 |
| 0.031 µM | B4 |
| 0.49 µM | B5 |
| 0.25 µM | B6 |
| 0.26 ± 0.01 µM | B7 |
| 0.02 µM | B8 |
| 0.3 µM | B9 |
